Test results from the supplement of paper PMC8007513.
Counter-ions that a name gives are not always drawn. ± gives the standard error. Hit rate of the full screen: of about 1,300 compounds, about 130 (10%) showed an effect of 50% or more. This is a selection; strong and weak results do not stand in their true shares.

Test system: Trichoderma virens ATCC 9645
Experiment: growth yield (OD600) with compound + IPBC relative to untreated control; higher = less growth inhibition
Settings: compound concentration: 100 uM, IPBC concentration: 200 ng/ml
In short: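 For each 96-well plate, 100 μl aliquots were prepared with Trichoderma virens ATCC 9645 spores suspended at 15,000 spores ml^−1 in potato dextrose broth. The spores had been harvested from potato dextrose agar plates after 7 days. Library compounds were present at 100 μM final, some wells also receiving a biocide at 200 ng ml^−1, and plates were grown at 30 °C with OD600 read on a BioTek EL800 at 40 h and 72 h. Reported growth, relative to the control lacking both agents, is the mean of duplicate screens.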

Structure (SMILES): CC(=O)OCC(=O)[C@@]1(O)[C@H](C)C[C@H]2[C@@H]3CCC4=CC(=O)C=C[C@]4(C)[C@@]3(F)[C@@H](O)C[C@@]21C [Dexamethasone acetate] + CCCCNC(=O)OCC#CI [3-iodo-2-propynyl butylcarbamate (IPBC)]
- growth yield (40 h): 96.3 ± 5.7%
- growth yield (72 h): 97.6 ± 6.2%

Structure (SMILES): COc1ccc(C(=O)c2ccccc2)c(O)c1 [Oxybenzone] + CCCCNC(=O)OCC#CI [3-iodo-2-propynyl butylcarbamate (IPBC)]
- growth yield (40 h): 45.3 ± 4.9%

Structure (SMILES): CCOC(=O)C1=C(C)NC(C)=C(C(=O)OCC)C1c1ccccc1/C=C/C(=O)OC(C)(C)C [Lacidipine] + CCCCNC(=O)OCC#CI [3-iodo-2-propynyl butylcarbamate (IPBC)]
- growth yield (40 h): 92.4 ± 0.95%
- growth yield (72 h): 91.98 ± 0.32%

Structure (SMILES): CCOc1cc(CC(=O)N[C@@H](CC(C)C)c2ccccc2N2CCCCC2)ccc1C(=O)O [Repaglinide] + CCCCNC(=O)OCC#CI [3-iodo-2-propynyl butylcarbamate (IPBC)]
- growth yield (40 h): 104 ± 7.3%
- growth yield (72 h): 104 ± 4.8%

Structure (SMILES): C#C[C@]1(O)CC[C@H]2[C@@H]3CCc4cc(O)ccc4[C@H]3CC[C@@]21C [Ethinylestradiol] + CCCCNC(=O)OCC#CI [3-iodo-2-propynyl butylcarbamate (IPBC)]
- growth yield (40 h): 70.5 ± 1.3%
- growth yield (72 h): 80.97 ± 0.21%

Structure (SMILES): CCCCN(CCCC)CCC(O)c1cc2c(Cl)cc(Cl)cc2c2cc(C(F)(F)F)ccc12 (stereo not drawn) [Halofantrine hydrochloride] + CCCCNC(=O)OCC#CI [3-iodo-2-propynyl butylcarbamate (IPBC)]
- growth yield (40 h): 13.8 ± 0.16%
- growth yield (72 h): 7.66 ± 1.1%

Structure (SMILES): Nc1c2c(nc3ccccc13)CCCC2 [Tacrine hydrochloride] + CCCCNC(=O)OCC#CI [3-iodo-2-propynyl butylcarbamate (IPBC)]
- growth yield (40 h): 100.5 ± 0.16%
- growth yield (72 h): 100 ± 0.42%

Structure (SMILES): CCN(CC)C(=S)SSC(=S)N(CC)CC [Disulfiram] + CCCCNC(=O)OCC#CI [3-iodo-2-propynyl butylcarbamate (IPBC)]
- growth yield (40 h): 33.7 ± 3.8%

Structure (SMILES): COc1ccc(CN2CCNCC2)c(OC)c1OC [Trimetazidine dihydrochloride] + CCCCNC(=O)OCC#CI [3-iodo-2-propynyl butylcarbamate (IPBC)]
- growth yield (40 h): 85 ± 2.1%
- growth yield (72 h): 91.87 ± 0.42%

Structure (SMILES): CC[C@H]1OC(=O)C[C@@H](O)[C@H](C)[C@@H](O[C@@H]2O[C@H](C)[C@@H](O[C@H]3C[C@@](C)(O)[C@@H](O)[C@H](C)O3)[C@H](N(C)C)[C@H]2O)[C@@H](CC=O)C[C@@H](C)C(=O)/C=C/C(C)=C/[C@@H]1CO[C@@H]1O[C@H](C)[C@@H](O)[C@@H](OC)[C@H]1OC [Tylosin] + CCCCNC(=O)OCC#CI [3-iodo-2-propynyl butylcarbamate (IPBC)]
- growth yield (40 h): 95.3 ± 7.9%
- growth yield (72 h): 95.1 ± 3%
